Measurements from ChEMBL document CHEMBL4888484, “Replenishing the malaria drug discovery pipeline: Screening and hit evaluation of the MMV Hit Generation Library 1 (HGL1) against asexual blood stage Plasmodium falciparum ,using a nano luciferase reporter read-out” (2022).
Out of some 150,000 compounds screened, about 540 (0.36%) showed an effect of 50% or more. The list shows a part of the results.

tested on: Plasmodium falciparum; assay: Primary screen in NF54 nanoGlo assay, in single point, at 2uM, 72h; a lower Z score goes with more inhibition; format: functional, Erythrocyte; conditions: timepoint 72 hour

Row | Compound | % Inhibition [%] | Z score
1 | Cc1cnn(C2(C(=O)O)CCN(C(=O)[C@H](N)C3CCCCC3)CC2)c1 | -3 | 0.59
2 | CCc1nc(C(=O)Nc2cccc(S(=O)(=O)C3CCCC3)c2)co1 | -3 | 0.33
3 | Cc1cccc(CN(Cc2ccccn2)C[C@H]2CCOCO2)c1 | -8 | 0.67
4 | CC(C)(C)c1nnc(NCc2cc(C#N)cs2)o1 | -14 | 1.38
5 | C[C@@H](Cc1ccc(OC(F)(F)F)cc1)C(=O)NCc1ncccn1 | -10 | 1.2
6 | CCC(=O)N1CC(n2cc(C(=O)NCC3CC3)nn2)C1 | -6 | 1.14
7 | O=C(COc1ccc2ccccc2c1Br)N1CCCCCC1 | -8 | 1.03
8 | Cc1ccccc1NC(=O)NC1CCCC(OC(=O)Nc2ccccc2)C1 (stereo not drawn) | -5 | 0.88
9 | CC(C)(C)c1ccc(C(=O)N2CC[C@H](Oc3cc(C(F)(F)F)ccn3)C2)cc1 | -14 | 2.7
10 | Cc1ccc(C)c(S(=O)(=O)NCCO)c1 | 2 | -0.33
11 | O=C(Cn1c(=O)cnc2cc(S(=O)(=O)N3CCCCC3)ccc21)NCc1ccco1 | -12 | 2.3
12 | Cc1nc(NC(=O)C[C@@H]2C=CCC2)sc1-c1ccccn1 | -13 | 1.14
13 | Cc1cc(Cl)cc(C#N)c1NC(=O)CCC(F)(F)F | 5 | -1.01
14 | O=C(Nc1nc2c(s1)CCC2)c1cnc2ccccc2n1 | 2 | -0.29
15 | C[C@H](NS(=O)(=O)Cc1ccc(Br)cc1)c1ccccn1 | -6 | 1.33
16 | O=C(Nc1ccc(O)c(-c2nc3ccccc3s2)c1)c1ccc(Cc2ccccc2)cc1 | -8 | 1.33
17 | CCS(=O)(=O)N1CC(=O)N(c2ccc(Cl)cc2)[C@](C)(C(=O)NCc2ccc(F)cc2)C1 | -5 | 0.7
18 | CN1CCCN(c2nc(C(F)(F)F)nc3cc4c(cc23)OCO4)CC1 | -8 | 1.28
19 | c1cc(OCCc2ccc3c(c2)CCO3)cc(-c2nnco2)c1 | -10 | 1.02
20 | C[C@H]1C(=O)N(C)CCN1c1nc(C2CC2)ns1 | -13 | 1.66
21 | O=C(C1CCN(C2CCN(c3nc4ccccc4o3)CC2)CC1)N1CCc2[nH]ncc2C1 | -22 | 1.93

Row | Compound | % Inhibition [%] | Z score
22 | Cc1ncc(C(=O)NCCCN(C)c2ccccc2)c(O)n1 | -1 | 0.08
23 | COc1cccc(S(=O)(=O)N2CCN(C3CCCC3)CC2)c1 | -5 | 0.58
24 | Cc1cccc(-c2ccccc2C(=O)N2CCN(C3CCN(C)CC3)CC2)c1 | -12 | 2.22
25 | Cc1ccc(C(=O)CCNc2ccc(C(=O)N3CCCCC3)cc2)cc1 | -17 | 1.96
26 | CCN1CC[C@@]2(CCC1=O)CN(Cc1c(C)ccc3ncccc13)CCN2C | 10 | -2.02
27 | Cc1ccc(C(=O)NC[C@H]2Cn3ccnc3CO2)cc1 | -1 | 0.07
28 | COc1ccccc1-c1nnc(CN2CCS(=O)(=O)C[C@@H]2C)o1 | -8 | 1.06
29 | c1ccc(O[C@H]2CCN(Cc3cnns3)C2)nc1 | -4 | 0.53
30 | CCOc1ccc(NC(=O)c2ccccc2NC(=O)C2CCCC2)cc1 | -18 | 1.62
31 | O=c1[nH]nc(Cc2ccc(O)cc2)n1C1CCCCC1 | -2 | 0.36
32 | c1ccc(NCc2nc3c(o2)CCCC3)cc1 | -7 | 1.2
33 | O=C(CCN(c1nc(-c2ccco2)nc2ccccc12)C1CC1)N1CCOCC1 | -18 | 1.8
34 | CN(C(=O)c1ccc(Oc2cccc(Cl)c2Cl)nc1)C1CCNCC1 | -11 | 1.6
35 | COCCOCCS(=O)(=O)Nc1ccc2oc(CO)cc2c1 | -6 | 0.63
36 | COC(C)CS(=O)(=O)NCC1CC(c2ccc(C)c(C)c2)=NO1 (stereo not drawn) | 2 | -0.2
37 | COCCN1CC[C@H](CN(C)S(=O)(=O)c2ccc3c(c2)OCCCO3)C1 | -3 | 0.49
38 | c1ccc(Cn2ccnc2CCNC(C2CC2)C2CC2)cc1 | -10 | 1.39
39 | CCn1c(C(=O)NC2CCCC2)cc2cc(S(=O)(=O)N(C)C)ccc21 | -4 | 0.71
40 | O=C(C(=Cc1cn(-c2ccccc2)nc1-c1ccc2c(c1)OCCO2)c1nc2ccccc2s1)c1ccccc1 | -23 | 3.68
41 | O=C1CCCCCN1Cc1ccccc1 | -6 | 0.75
42 | COCCn1cc(-c2cccc3c2CC(=O)N3)cn1 | 7 | -0.93

Row | Compound | % Inhibition [%] | Z score
43 | O=C(c1cccc(F)c1)N1CCC(OCc2nc(C3CC3)no2)CC1 | -6 | 0.8
44 | COc1ccc(CC(=O)N2CCN(c3cc(-n4nc(C)cc4C)ncn3)CC2)cc1 | -12 | 1.71
45 | c1ccc(CCCO[C@H]2CCN(c3ncnc4nc[nH]c34)C2)cc1 | -11 | 1.61
46 | O=C1NC(C2CC2)(C2CC2)C(=O)N1Cc1nc(C2CC2)no1 | 31 | -3.48
47 | Cc1ccc(C(=O)NCc2ccc(F)cc2)c(C2CCN(Cc3ccco3)CC2)n1 | -5 | 0.53
48 | C[C@@H](CNC(=O)c1ccsc1NC(=O)c1cccs1)CN1CCCCC1 | -9 | 1.62
49 | O=C(COCC(F)(F)C(F)F)NCCc1cnccn1 | -1 | 0.09
50 | O=C(NCCCc1nc(-c2ccccn2)cs1)[C@@H]1COCCO1 | -11 | 2.25
51 | NC(=O)c1c(NC(=O)CN2CCCC3CCCCC32)sc2c1CCC2 (stereo not drawn) | -1 | 0.14
52 | O=C(Nc1cc(-c2nnc3n2CCCCC3)ccc1F)c1nc(-c2ccccc2)n(-c2ccccc2)n1 | 9 | -1.97
53 | Cc1ccc(S(=O)(=O)c2c(NS(=O)(=O)c3ccc(Cl)cc3)n(-c3cc(C)cc(C)c3)c3nc4ccccc4nc23)cc1 | -6 | 0.5
54 | CC(C)(C)n1ncc2c1NC(=O)C[C@@H]2C1=Cc2ccccc2OC1 | 34 | -3.82
55 | Cc1cc(O)c2c(C)nn(-c3ccccc3)c2n1 | -24 | 2.85
56 | O=C(NCc1ccc2c(c1)CCN2C(=O)c1ccccc1)NC[C@H]1CCCO1 | -9 | 1.68
57 | Cc1cccc(C)c1NC(=O)[C@H](C)N(C)CCc1nccs1 | 3 | -0.32
58 | CCN1Cc2ccccc2CC1CN1CCC(COC)C1 (stereo not drawn) | -8 | 1.21
59 | CCCS(=O)(=O)N(CCOC)CC(=O)N(Cc1ccc(Cl)cc1)C1CCN(S(=O)(=O)c2ccc(Cl)cc2)CC1 | 15 | -2.14
60 | Cc1ccc(-c2nc3ccc(Cl)cn3c2Nc2ccc3c(c2)OCCO3)s1 | -2 | 0.31
61 | O=C(COc1ccccc1)Nc1cccc(-c2cc3c(o2)CCN(C(=O)c2cccc4ccccc24)C3)c1 | -10 | 2.01
62 | NS(=O)(=O)c1cc(Cl)cc(CN2CC[C@]3(CNC(=O)C3)C2)c1 | -5 | 0.72
63 | CCOc1cccc2c1O[C@]1(C)C[C@@H]2NC(=O)N1c1ccc(F)cc1 | 1 | -0.17

Row | Compound | % Inhibition [%] | Z score
64 | COCCC[C@]1(C(=O)O)CCCN(C(=O)c2cc3c(cc2OC)CCC3)C1 | -10 | 1.12
65 | C[C@@H](Cn1cccn1)C(=O)NC1(C(N)=O)CCCC1 | 0 | 0
66 | Cc1nc2c(c(-c3ccc(S(C)(=O)=O)cc3)n1)CCC2 | 0 | 0.01
67 | CCN(CC(=O)Nc1ccc2c(c1)OCCO2)C(=O)c1ccc2c(c1)C(=O)N(Cc1ccccc1)C2=O | 6 | -0.87
68 | Cc1cn(Cc2nc(-c3cccnc3)n[nH]2)c(=O)[nH]c1=O | -14 | 2.68
69 | COc1cc(C(=O)N(C)C2CCCCCCC2)cc(OC)c1OCC(N)=O | -4 | 0.69
70 | CCc1nc(CN(C)Cc2sccc2C)n[nH]1 | -11 | 1.79
71 | C[N+]12CCCC[C@@H]1[C@H](COC(=O)c1ccccc1Cl)CCC2 (stereo partly drawn) | 7 | -0.65
72 | COCCCn1cnnc1[C@H](C)NCc1cnc(-c2cccc(C)c2)nc1 | -1 | 0.17
73 | CCOC(=O)c1cc(-c2ccc(OC)cc2)n(C2CCN(C(=O)c3cccc(OC)c3)CC2)n1 | 25 | -3.38
74 | Cc1cc(S(=O)(=O)N(CCO)CCO)ccc1F | -22 | 2.63
75 | NC1CC2CC(C(=O)NCCc3ccc4ncccc4c3)CC12 (stereo not drawn) | -15 | 2.11
76 | C#CC[C@H](CC(F)(F)F)NC(=O)c1ccncc1F | -14 | 2.06
77 | O=C1CN(C(=O)c2ccc(OC3CCC3)cc2Cl)CCN1CC(F)(F)F | -7 | 1
78 | COC(=O)N[C@@H](C)c1nc(-c2cccnn2)no1 | -12 | 1.15
79 | O=C(Cc1cccc(F)c1)N1CC2CC1CS2(=O)=O (stereo not drawn) | -17 | 1.96
80 | Nc1nc(-c2cnc3ccccc3c2)cc2nncn12 | -5 | 0.88
81 | O=C(Nc1nc(-c2cc(F)ccc2F)cs1)C1(n2cnnn2)CCOCC1 | -5 | 0.76
82 | O=C(c1ccc2nc(-c3ccc(F)cc3)cn2c1)N1CCC(O)CC1 | -3 | 0.59
83 | Cc1c(Br)cccc1C(=O)NCCCc1nc(=O)[nH][nH]1 | -8 | 0.84
84 | C[C@@H]1CCC[C@H](C)N1Cc1nnc(-c2ccco2)o1 | -13 | 1.81
